Test results reported in PubChem BioAssay AID504832 (National Center for Advancing Translational Sciences (NCATS), 2011).
About 18,000 (5.8%) of roughly 310,000 compounds were called active. This list was built around the results that the source calls inconclusive (neither active nor inactive); the mix of calls is not that of the screen. Calls come from the whole dose curve; as a rule, active = well fitted inhibition curve with a large enough effect; inconclusive = small, poorly fitted or top-dose-only effect, or another doubt; inactive = no such curve, though single readings can be large or run the other way. Potencies of inconclusive entries are left out as doubtful fits.

Test: Primary qHTS for delayed death inhibitors of the malarial parasite plastid, 48 hour incubation
Conditions: P. falciparum luciferase growth in erythrocytes; series mostly up to 28.7 µM; activity change, negative = inhibition: at the top concentration
Procedure, shortened: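 Erythrocytes infected with P. falciparum carrying an integrated firefly luciferase reporter (2% hematocrit, 0.1% parasitemia final) were exposed to compounds in RPMI 1640 with 0.5% Albumax at 37 C, 5% CO2. Growth inhibition was scored as reduced luminescence.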
% is set by controls: 0 for no effect and ±100 for the full control effect; potency is the fitted concentration of half-maximal effect; tags give direction and shape of the fitted curve.

| SMILES | Potency | activity change, negative = inhibition |
| --- | --- | --- |
| Clc1ccc(OCCSCc2nc3ccccc3[nH]2)cc1 | inconclusive [inhibitor, partial curve] |  |
| S=C(NCCc1ccccc1)Nc1ccc(N2CCCCC2)cc1 | inconclusive [inhibitor, single point] |  |
| CCOc1cc(C(=S)N2CCCC2)ccc1O |  | inactive: 116% |
| CCOc1ccc2ncc(S(=O)(=O)c3ccccc3)c(N3CCN(c4ccc(OC)cc4)CC3)c2c1 | active: 8.28 µM |  |
| Cc1c(Br)cnn1C(C)C(=O)N1CCN(c2ccccc2F)CC1 (configuration not stated) | inconclusive [inhibitor, single point] |  |
| COc1ccc(OCC(=O)N2CCN(CC3CC4C=CC3C4)CC2)cc1 (configuration not stated) |  | inactive: -22.5% |
| Cc1c(C)n(Cc2ccccc2)c2ncnc(NCCN(C)C)c12 | inconclusive [inhibitor, partial curve, poor fit] |  |
| O=C(c1ccc(N2CCCC2=O)cc1)N1CCN(c2ccccc2Cl)CC1 | inconclusive [inhibitor, partial curve] |  |
| COc1ccc2nc(N3C(=O)/C(=C/c4ccccc4)NC3=S)sc2c1 | inconclusive [inhibitor, partial curve, poor fit] |  |
| CCC(Sc1nc2cc(OC)c(OC)cc2c(=O)n1CCc1ccc(OC)c(OC)c1)C(=O)NCCOC (configuration not stated) | inconclusive [inhibitor, partial curve] |  |
| Oc1c(Br)cc(Cl)cc1C=Nc1ccc(N2CCOCC2)cc1 | inconclusive [inhibitor, single point] |  |
| COc1cccc(C(=O)N/N=C/c2ccc(OC3CSC3)cc2)c1 |  | inactive: -7.73% |
| CCCc1ccc2oc(C(=O)N3CCC(C(N)=O)(N4CCCCC4)CC3)c(C)c2c1 | inconclusive [inhibitor, partial curve, poor fit] |  |
| O=C1C(=O)N(CCCn2ccnc2)C(c2ccc(Br)cc2)/C1=C(\O)c1ccc2c(c1)OCCO2 (configuration not stated) |  | inactive: -0.421% |
| CC1CC1C(=O)N1CCN(S(=O)(=O)c2cc(C(F)(F)F)cc(C(F)(F)F)c2)CC1 (configuration not stated) | inconclusive [inhibitor, partial curve] |  |
| O=C(Cn1c(=O)c2c(ncn2C2CCCC2)n(Cc2ccccc2)c1=O)N1CCc2ccccc21 | active: 5.86 µM |  |
| COc1cccc2c1C(=O)C[C@]1(CCCC[C@@H]1C)O2 |  | inactive: -2.21% |
| COc1cccc(N2C(=O)C(CC(=O)Nc3ccccc3)N(C3CCCCC3)C2=O)c1 (configuration not stated) | inconclusive [inhibitor, single point] |  |
| N#Cc1c(C#N)c(-c2ccccc2)n(-c2ccc(C(=O)O)cc2)c1N |  | inactive: -5.02% |
| CC1(C)C=Cc2c(c3c(c4c(=O)c(-c5ccc(O)cc5)coc24)OC(C)(C)CC3)O1 | inconclusive [inhibitor, partial curve, poor fit] |  |
| CCC(C)(C)n1nnnc1C(c1cccs1)N1CC=C(c2ccc(F)cc2)CC1 (configuration not stated) | active: 7.38 µM |  |
| COc1cc(-c2cc(C(=O)N3CCCCCC3)c3ccccc3n2)cc(OC)c1OC | inconclusive [inhibitor, partial curve, poor fit] |  |
| COc1ccc(-c2cn(-c3ccc(Cl)cc3)c3[n+]2CCCCC3)cc1 | inconclusive [inhibitor, full curve] |  |
| O=C(/C=C/c1cccc([N+](=O)[O-])c1)NC(=S)Nc1ccccc1C(=O)O |  | inactive: 2.53% |

| SMILES | Potency | activity change, negative = inhibition |
| --- | --- | --- |
| Cc1oc2ccccc2c1CNC(=O)N(C)C | inconclusive [inhibitor, full curve] |  |
| CCn1c(C)nc2cc(C(=O)N=Nc3c(O)[nH]c4c(C)cc(C)cc34)ccc21 | active: 9.28 µM |  |
| COc1cc(C(=O)Nc2ccc(C)c(S(=O)(=O)N(C)C)c2)ccc1OCC(=O)N1CCOCC1 |  | inactive: -14.1% |
| COc1ccc(C(=O)CC(CC(=O)c2ccc(OC)cc2)C(=O)O)cc1 | inconclusive [inhibitor, partial curve, poor fit] |  |
| O=C(N1CCOCC1)C1(c2ccc(Cl)cc2)CCCC1 |  | inactive: -10.9% |
| CCCCNC(=O)Cn1c(=O)n(C)c2ccccc21 |  | inactive: 17.2% |
| CC(=O)c1ccc(NC(=O)CC2S/C(=N/N=C3CCCCCC3)NC2=O)cc1 (configuration not stated) | inconclusive [inhibitor, full curve, poor fit] |  |
| Cc1ccc(S(=O)(=O)N2CCN(C(=O)COC(=O)C3(C)CC3(Cl)Cl)CC2)c(C)c1 (configuration not stated) | active: 10.4 µM |  |
| CC(=O)CC(C)(C)n1c[n+](C)nn1 |  | inactive: 65.1% |
| COc1cccc(OC)c1OCCN1CCN(C(c2ccccc2)c2ccccc2)CC1 | inconclusive [inhibitor, partial curve, poor fit] |  |
| CCN1CCN(CCOCCOc2ccccc2)CC1 |  | inactive: 6.57% |
| COc1cc(NC(=O)NCC2CCN(Cc3ccccc3Cl)CC2)cc(OC)c1OC | inconclusive [inhibitor, partial curve] |  |
| O=C(O)C(=O)/C(=C\c1ccc([N+](=O)[O-])cc1)c1ccc2ccccc2n1 |  | inactive: 305% |
| CCOC(=O)c1c(-c2ccccc2)oc2cc(Br)c(O)cc12 | inconclusive [inhibitor, partial curve] |  |
| CCn1c(/C=C/c2ccccc2Cl)nc2ccccc2c1=O | active: 1.85 µM |  |
| CN(Cc1ccccc1)S(=O)(=O)c1ccc(Cl)c(C(=O)NCCc2ccccn2)c1 |  | inactive: 36.5% |
| Cc1onc(-c2c(Cl)cccc2Cl)c1C(=O)OCC(=O)c1ccccc1 | inconclusive [inhibitor, partial curve, poor fit] |  |
| CC(NS(=O)(=O)c1ccc(Br)cc1)C(=O)NCC1CCCO1 (configuration not stated) |  | inactive: 6.32% |
| CNc1nc(OCC#N)nc(N2CCCCC2)n1 | inconclusive [inhibitor, partial curve] |  |
| Fc1cccc(F)c1-n1c(CN2CCCC2)csc1=S | inconclusive [inhibitor, full curve] |  |
| O=C([O-])c1ccccc1-[n+]1c(-c2ccccc2)cc(-c2ccccc2)cc1-c1ccccc1 | active: 11.7 µM |  |
| O=C(Cn1nnc(-c2cccs2)n1)NCc1cccs1 |  | inactive: 11.9% |
| CCc1ccc(CN2CCC(Oc3ccc(C(=O)N4CCCC4)cc3)CC2)cc1 | active: 9.28 µM |  |
| CCOc1cc(/C=N/NC(=O)CN2CCOCC2)ccc1OCc1ccccc1 | inconclusive [inhibitor, partial curve, poor fit] |  |

| SMILES | Potency | activity change, negative = inhibition |
| --- | --- | --- |
| Cc1cc2[nH]c(=O)c(=O)[nH]c2cc1S(=O)(=O)N1CCN(c2cccc(C(F)(F)F)c2)CC1 | inconclusive [inhibitor, partial curve] |  |
| CC(C)(C)n1nnnc1C(c1ccccn1)N(Cc1ccccc1)Cc1ccc(Cl)cc1 (configuration not stated) | active: 11.7 µM |  |
| CC(C)(C)c1cc(CCC(=O)NCCc2ccccn2)cc(C(C)(C)C)c1O | inconclusive [inhibitor, single point] |  |
| O=C(Cc1cccs1)Nc1cccc(-c2nc3ccccc3o2)c1 |  | inactive: 3% |
| COC(=O)c1c(C)[nH]c(C=Nc2ccc(OC)cc2)c1C |  | inactive: 4.88% |
| CN1CCN(CP(=O)(N2CCOCC2)N2CCOCC2)CC1 |  | inactive: -3.53% |
| c1ccc(OCc2nn3c(Cn4cnc5ccccc54)nnc3s2)cc1 | inconclusive [inhibitor, partial curve, poor fit] |  |
| CCOC(=O)Oc1ccc2c(c1)C(C)=CC(C)(C)N2C(=O)OCC | inconclusive [inhibitor, partial curve] |  |
| CC(C)CC(c1nnnn1CC1CCCO1)N1CCN(c2cccc(Cl)c2)CC1 (configuration not stated) | inconclusive [inhibitor, single point] |  |
| O=C(COc1ccc(Cl)cc1)NCCC1=CCCCC1 | inconclusive [inhibitor, full curve] |  |
| Cc1cc(C(=O)CN2C(=O)C(=O)N(CC(C)C)C2=O)c(C)n1-c1ccccc1F |  | inactive: -9.59% |
| O=C(CN(CCO)c1ccccc1)Nc1ccc(Cl)c(S(=O)(=O)N2CCOCC2)c1 | inconclusive [inhibitor, partial curve, poor fit] |  |
| Cc1ccc(S(=O)(=O)N(C)CC(=O)NCC(c2ccc(F)cc2)N2CCOCC2)cc1 (configuration not stated) | active: 9.28 µM |  |
| COc1cc(/C=N/NC(=O)c2ccc(=O)[nH]n2)ccc1O |  | inactive: -10.5% |
| COc1ccc(C)cc1NC(=O)c1nnn(Cc2cccc(F)c2)c1N | inconclusive [inhibitor, single point] |  |
| OCCNCCCCOc1cccc(Br)c1 | inconclusive [inhibitor, single point] |  |
| O=C(O)c1ccc(N/N=C/c2ccnc3ccccc23)cc1 |  | inactive: 137% |
| O=C(Nc1ccc(Br)cc1)C1CCN(C(=O)c2ccco2)CC1 |  | inactive: -8.81% |
| O=c1[nH]c2cc3c(cc2cc1CN(Cc1cccnc1)C(=S)NCc1ccco1)OCCO3 | inconclusive [inhibitor, single point] |  |
| COc1ccccc1-c1nc(C(N)=O)c2[nH]c(=O)n(-c3cccc(C)c3)c2n1 | inconclusive [inhibitor, full curve] |  |
| NS(=O)(=O)c1ccc(NC(=O)COC(=O)CCc2nc3ccccc3c(=O)[nH]2)cc1 | inconclusive [inhibitor, single point] |  |
| N#CC[C@H](Cc1ccccc1)N1CC[C@@H](NC(=O)OCc2ccccc2)CCC1=O |  | inactive: 1.44% |
| CCC/C(O)=C1\C(=O)CCCC1=NC(C)C(=O)O (configuration not stated) | inconclusive [inhibitor, single point] |  |
| CCCCn1c(N)c(N(CC(C)C)C(=O)c2cc3c(s2)CCC3)c(=O)[nH]c1=O | inconclusive [inhibitor, single point] |  |
